# Results published in publication PMC4336329 (PLoS ONE, 2015).
# Screen size: about 310,000 compounds; about 2,200 (0.71%) showed an effect of 50% or more. Effects have a minus sign here. Some of the results follow.
# Molecular target: human ether-à-go-go-related gene (hERG) potassium channel (human, UniProt Q12809)
# Test: primary screen, population patch clamp on CHO cells stably expressing hERG
# Chain of human ether-à-go-go-related gene (hERG) potassium channel (Q12809 whole entry, looked up): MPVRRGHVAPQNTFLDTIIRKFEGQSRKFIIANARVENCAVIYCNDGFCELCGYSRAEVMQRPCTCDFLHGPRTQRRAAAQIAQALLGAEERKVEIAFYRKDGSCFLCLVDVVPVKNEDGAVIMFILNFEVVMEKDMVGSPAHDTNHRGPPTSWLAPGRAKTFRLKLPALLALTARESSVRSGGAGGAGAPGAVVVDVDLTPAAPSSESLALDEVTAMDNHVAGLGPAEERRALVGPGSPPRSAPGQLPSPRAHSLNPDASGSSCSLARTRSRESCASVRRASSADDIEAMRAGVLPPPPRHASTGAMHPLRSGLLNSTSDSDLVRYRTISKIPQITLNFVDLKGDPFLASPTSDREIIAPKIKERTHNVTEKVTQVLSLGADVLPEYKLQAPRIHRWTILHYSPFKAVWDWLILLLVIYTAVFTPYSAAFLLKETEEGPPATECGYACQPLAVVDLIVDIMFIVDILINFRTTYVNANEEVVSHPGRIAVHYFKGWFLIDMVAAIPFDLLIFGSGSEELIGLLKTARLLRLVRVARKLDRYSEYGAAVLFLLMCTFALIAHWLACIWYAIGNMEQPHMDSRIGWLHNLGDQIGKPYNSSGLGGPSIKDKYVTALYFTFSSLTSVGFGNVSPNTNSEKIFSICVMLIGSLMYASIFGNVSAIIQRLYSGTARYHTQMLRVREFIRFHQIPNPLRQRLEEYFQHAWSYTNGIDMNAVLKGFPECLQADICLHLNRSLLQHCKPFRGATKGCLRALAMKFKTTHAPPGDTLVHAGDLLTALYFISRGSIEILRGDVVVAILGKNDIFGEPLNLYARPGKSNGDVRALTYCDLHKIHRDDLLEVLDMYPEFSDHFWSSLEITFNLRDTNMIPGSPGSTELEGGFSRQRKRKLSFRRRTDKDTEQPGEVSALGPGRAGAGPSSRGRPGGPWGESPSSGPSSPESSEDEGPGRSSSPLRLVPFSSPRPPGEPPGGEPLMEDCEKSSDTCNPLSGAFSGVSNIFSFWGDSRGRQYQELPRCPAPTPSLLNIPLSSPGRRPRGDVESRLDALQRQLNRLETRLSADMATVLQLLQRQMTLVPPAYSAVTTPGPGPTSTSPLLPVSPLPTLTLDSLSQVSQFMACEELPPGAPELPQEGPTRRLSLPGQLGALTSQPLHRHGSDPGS
row,SMILES,"hERG current change (%, negative = inhibition) at 1uM"
1,CCOC(=O)CSc1nnc(CNC(=O)c2ccc(OC)cc2)n1C1CCCCC1,1.03%
2,Cc1ccc(NC(=O)CN(C)C(=O)C2COc3ccccc3O2)cc1 (stereo not drawn),16.1%
3,S=c1[nH]nc(COc2ccccc2)n1/N=C/C(Cl)=C/c1ccccc1,11.3%
4,N#Cc1ccccc1NS(=O)(=O)c1cc2c3c(c1)CCN3C(=O)CC2,11.6%
5,CCC[N+]1(CC#CC2(O)CCCCC2)CCOCC1.[I-],5.18%
6,COc1cccc(NC(=S)N2CCCC2)c1,14.3%
7,CS(=O)(=O)c1nc2ccccc2n1Cc1ccccc1,0.66%
8,O=C(Cn1c2ccc(F)cc2c2nc3n(c(=O)c21)CCS3)NC1CCCC1,8.76%
9,CC(=O)Nc1ccc(Nc2ncc([N+](=O)[O-])c(Nc3ccc(NC(C)=O)cc3)n2)cc1,11.2%
10,CCOc1ccc(-c2c(C)sc3nc[nH]c(=O)c23)cc1,13.7%
11,Cl.N=c1n(CCO)c2ccccc2n1CCOc1ccc(Cl)cc1Cl,-33.6%
12,O=C(NC1CCCCC1)C(c1ccncc1)N(Cc1ccc2c(c1)OCO2)C(=O)c1cnsn1 (stereo not drawn),5.5%
13,CCCc1ccc(C(=O)O/N=C(\N)c2ccccn2)cc1,4.27%
14,COc1ccc(-c2csc(/C=C/c3ccc4c(c3)OCO4)n2)cc1OC,2.68%
15,CCc1nnc(NC(=O)CSc2nnc(CNc3ccc(Cl)cc3)o2)s1,2.71%
16,O=C1CN(C(=O)c2ccco2)c2ccccc2N1,11.3%
17,CCOC(=O)c1cc(S(=O)(=O)NCc2ccco2)cn1C,8.14%
18,Cc1cc(C)cc(N2C(=O)CC(Cn3nc(C)cc3C)C2=O)c1 (stereo not drawn),4.61%
19,CCOC(=O)CSc1nnc(CNC(=O)c2cccs2)n1-c1ccccc1,3.45%
20,O=S(=O)(c1cccc(-c2nnc3n2CCCCC3)c1)N1CCOCC1,5.29%
21,Fc1ccc(NC(=S)NCc2cccs2)cc1,2.52%
22,CCCCCCCN1C(Nc2ccccc2)=NC[C@@H]1Cc1ccccc1,-79.6%

row,SMILES,"hERG current change (%, negative = inhibition) at 1uM"
1,CC(C)CN(C(=O)COC(=O)C(C)N1C(=O)c2ccccc2C1=O)c1c(N)n(Cc2ccccc2)c(=O)[nH]c1=O (stereo not drawn),5.55%
2,O=C(O)/C=C/C(=O)Nc1ccc(OC(F)F)cc1,-5.6%
3,O=C(NCCN1CCOCC1)c1ccc2c(c1)N(Cc1ccccc1F)C(=O)c1ccccc1S2,11.4%
4,Cc1ccc([N+](=O)[O-])cc1NC(=O)CN1CCC(C)CC1,11%
5,COCCNC(=S)N1CCN(c2cccc(C)c2C)CC1,14.4%
6,O=S(=O)(Nc1cccnc1)c1ccc(F)cc1,11.6%
7,CCCCCOC(=O)C1[C@H]2C(=O)N(Cc3cccs3)C[C@]23C=C[C@H]1O3 (stereo partly drawn),8.86%
8,C/C(=N\Nc1nc2ccccc2s1)c1ccc2c(c1)OCO2,13.8%
9,COc1ccccc1N1CCN(Cc2cc(C)c(C)cc2O)CC1,-1.06%
10,Cc1cc(C)c(NC(=O)CSc2nnc(-c3ccncc3)n2Cc2ccco2)c(C)c1,-12.6%
11,Cc1ccccc1C1C(C#N)=C2NC(=O)c3c(sc4c3CCCCC4)N2C2=C1C(=O)CC(C)(C)C2 (stereo not drawn),10.2%
12,CCOc1cc(/C=C/c2cc(C(F)(F)F)[nH]c(=O)n2)ccc1O,15.5%
13,Cc1ccc(/C=C2/SC(=S)N(c3ccc(S(=O)(=O)Nc4nccs4)cc3)C2=O)cc1,15.4%
14,Cc1ccc(-c2cc(C(F)F)nc(NCc3cccnc3)n2)cc1,12.7%
15,Cn1c(CSc2nc3ccccc3n2C)nc2ccccc21,11%
16,C#CCn1cnc2c(cnn2-c2ccc(C)c(C)c2)c1=O,8.4%
17,Cc1cccc(C)c1NC(=S)N(Cc1cccnc1)Cc1ccccc1Cl,6.92%
18,Cc1nnc(Nc2ccc(F)cc2)c2ccccc12,-5.84%
19,COc1ccc(-c2cc3cc(-c4cc(OC)c(OC)c(OC)c4)ccc3o2)cc1,8.79%
20,CSc1nc2nc3c(c(=O)n2[nH]1)CN(Cc1ccccc1)CC3,6.65%
21,CC(=O)O[C@H]1[C@H]2O[C@]23[C@@H]2CC[C@]4(O)C[C@@H](O)CC[C@]4(C)C2CC[C@]3(C)[C@H]1c1ccc(=O)oc1 (stereo partly drawn),6.84%
22,NS(=O)(=O)c1cnccc1Nc1ccc(Cl)c(Cl)c1,7.19%

row,SMILES,"hERG current change (%, negative = inhibition) at 1uM"
1,COc1ccc(-c2nc(C#N)c(NCCCN3CCOCC3)o2)cc1,-5.64%
2,Cc1cccc(NC(=O)c2nc[nH]c2C(=O)NCc2ccccc2)c1,8.93%
3,Cc1nn(C(C)C(=O)NNC(=S)Nc2ccc(Cl)cc2)c(C)c1[N+](=O)[O-] (stereo not drawn),4.3%
4,CC1(C)CC(=O)CC(=NCC(=O)O)C1,12%
5,COCCN(CCOC)c1nc(-c2ccc(C)cc2)nc2ccccc12.Cl,-24.9%
6,CN(C)S(=O)(=O)c1cc(C(=O)OCCn2cnc3c2c(=O)n(C)c(=O)n3C)ccc1Cl,-14.2%
7,COc1ccc(CNCCC2(Cc3ccccc3)CC(C)N(C)CC2C)cc1OC.Cl (stereo not drawn),12.4%
8,CC(=O)c1ccc(N2CCN(S(=O)(=O)c3cn(C)c(C)n3)CC2)cc1,13.2%
9,O=S(=O)(c1ccccc1)N1CCN(CC(O)COc2ccc3c(c2)CCC3)CC1 (stereo not drawn),7.37%
10,Cc1ccc(S(=O)(=O)NCCC(=O)N2CC(C)OC(C)C2)cc1 (stereo not drawn),16.1%
11,Cc1cc(Cl)ccc1OCC(=O)OCC(=O)c1c(N)n(C)c(=O)n(C)c1=O,-6.12%
12,Cc1ccc(NS(=O)(=O)c2cc(C(=O)OCC(=O)NCC3CCCO3)ccc2C)cc1 (stereo not drawn),10.5%
13,O=C(NCCCCNC(=O)c1ccccc1F)c1ccccc1F,13.2%
14,COc1cccc(-c2csc(N3CCN(S(=O)(=O)c4ccc(F)cc4)CC3)n2)c1,-8.84%
15,CCCCn1c(N)c(N(CC)C(=O)CSCc2c(C)noc2C)c(=O)[nH]c1=O,10%
16,COc1ccc(-c2nc3c(n2O)CCc2c-3no[n+]2[O-])cc1,18.1%
17,CCc1cccc2c(C(=O)CSc3nncn3C)c[nH]c12,11.2%
18,CCCCN(CC)CCCNC(=S)Nc1ccc2nc(N3CCN(C)CC3)cc(C)c2c1,4.69%
19,CSc1nnc(-c2cc3ccccc3cc2O)n1C,3.51%
20,O=CN1CCN(C(=O)c2cccc([N+](=O)[O-])c2)CC1,8.76%
21,COc1cccc(C(=O)Nc2c(C)nn(-c3ccccc3)c2C)c1,11.9%
22,Cl.Fc1ccc(Nc2nc(N3CCOCC3)c3ccccc3n2)cc1,4.87%

row,SMILES,"hERG current change (%, negative = inhibition) at 1uM"
1,CCN(CC(=O)NC(C)(C)C)C(=O)CN1c2cccc3cccc(c23)S1(=O)=O,17.3%
2,CCC(=O)c1ccc(OCC(=O)OCC(=O)N2CCN(c3ccc(OC)cc3)CC2)cc1,20.4%
3,COC(=O)c1ccc(NC(=O)CCN2CCN(CCC(=O)Nc3ccc(C(=O)OC)cc3)CC2)cc1,1.76%
4,CCCCN(C)Cc1c(C)[nH]c2ccccc2c1=O,-8.8%
5,COCCNCCCOc1ccc(C(C)(C)c2ccccc2)cc1.O=C(O)C(=O)O,-2.99%
6,CN(C)C1C(=O)c2ccccc2C1=O,2.44%
7,COC(=O)CNC(=O)COC(=O)/C=C/c1ccc(F)cc1,12.2%
8,CCC(Oc1ccccc1)C(=O)Nc1ccccc1C(=O)N1CCCCC1 (stereo not drawn),10.1%
9,CCCC(=O)Nc1nc2n(n1)C(c1ccccc1)CC(=O)N2 (stereo not drawn),4.23%
10,O=C(COC(=O)c1ccc(S(=O)(=O)N2CCc3ccccc3C2)cc1)NC(=O)NCc1ccco1,9.42%
11,O=C(O)CCN1C(=O)C2C3CC(C2C1=O)C1C(c2ccccc2)c2sc(=O)n(-c4ccccc4)c2SC31 (stereo not drawn),13.3%
12,Cc1cc(C2C(C#N)=C(N)OC3=C2C(=O)CCC3)c(C)s1 (stereo not drawn),-1.05%
13,O=P(/C(=N/O)N1CCCCC1)(N1CCOCC1)N1CCOCC1,11%
14,Cc1nn(CC(=O)NCCN2CCOCC2)c(C)c1[N+](=O)[O-],21.7%
15,CC(=O)C[C@@H](O)CC(=O)[C@H]1OC(=O)CCCCCCc2ccccc21,6.45%
16,O=C(Nc1ccc(N2CCOCC2)cc1)c1cccc(S(=O)(=O)N2CCCCCC2)c1,9.66%
17,COc1ccc(CN(C)C(=O)c2[nH]c(C)c(C(C)=O)c2C)cc1F,9.61%
18,CC(NC(=O)c1cc2cc(Cl)ccc2oc1=N)c1ccccc1 (stereo not drawn),13.7%
19,COc1ccc([C@@H]2[C@@H]3C(=O)N(C(C)(C)C)C(=O)[C@@H]3[C@]3(CC(C)C)C(=O)N(c4ccccc4)C(=O)N23)cc1,11.8%
20,O=C(CN1C(=O)C2C3CCC(C3)C2C1=O)OCC(=O)c1cccc([N+](=O)[O-])c1 (stereo not drawn),16.4%
21,Cc1cc(OCc2ccc(C(=O)n3cccn3)o2)ccc1Cl,2.13%
